Measurements from PubChem BioAssay AID588855 (National Center for Advancing Translational Sciences (NCATS), 2011).
Out of some 410,000 compounds screened, about 5,000 (1.2%) were called active. The shares of active, inactive and inconclusive entries below differ from those in the screen. Calls come from the whole dose curve; as a rule, active = well fitted inhibition curve with a large enough effect; inconclusive = small, poorly fitted or top-dose-only effect; inactive = no such curve, though single readings can be large or run the other way. A potency beside an inconclusive call is a rough fit, not a confirmed value.

Assay: qHTS for Inhibitors of TGF-b; note: nearly all actives have a fitted effect of over 65% in size
Details: HepG2 CAGA-GFP TGF-b/SMAD3 reporter, GFP fluorescence, 18 h, TGF-beta stimulated, 500 pg/mL final; series mostly up to 46.1 µM
Summary of the method: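 Smad-responsive CAGA-GFP expression was quantified in HEPG2 cells exposed to compounds and 500 pg/mL final TGF-beta for 18 h at 37 degrees C; unstimulated wells defined full inhibition.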
Potency is the fitted concentration of half-maximal effect; tags give direction and shape of the fitted curve.

| Structure (SMILES) | Potency |
| --- | --- |
| CC(=O)Nc1ccc(S(=O)(=O)N(C)CC(=O)OCC(=O)c2cc(C)n(-c3ccc4c(c3)OCO4)c2C)cc1 | inconclusive: 35.5 µM [inhibitor, single point] |
| CN1C(C(=O)NCc2cccc(C(F)(F)F)c2)CC2Cn3c(nc4cc(Cl)c(Cl)cc43)C21 (configuration not stated) | inconclusive: 3.98 µM [inhibitor, full curve, poor fit] |
| Cc1ccc(/C=N/NC(=S)N2CCOCC2)cc1 | inconclusive: 22.4 µM [inhibitor, single point] |
| COc1cccc(Nc2nc(N)nc(CCl)n2)c1 | inconclusive: 35.5 µM [inhibitor, single point] |
| Cc1ccccc1-n1c(SCC(=O)N2CCC(C(=O)O)CC2)nnc1-c1ccncc1 | inactive |
| CC(C)(C)N(Cc1ccccc1)C(=O)COC(=O)C1CCN(c2ccc(C(F)(F)F)cn2)CC1 | inconclusive: 35.5 µM [inhibitor, single point] |
| CCOc1ccc(CN(C)C(=O)CNC(=O)Cc2cccc3ccccc23)cc1 | inactive |
| CC(=O)Nc1ccc(Nc2cc(C(C)C)nc3c(-c4ccccc4)c(C)nn23)cc1 | inconclusive: 35.5 µM [inhibitor, single point] |
| CCCCCN(C(=O)CN1CCC(Cc2ccccc2)CC1)c1c(N)n(CCCC)c(=O)[nH]c1=O | inactive |
| CCCCN1CC(=O)N2[C@H]3c4cc(OC)ccc4OC[C@@H]3[C@H](C(=O)OCC)[C@]2(C)C1=O | inconclusive: 35.5 µM [inhibitor, single point] |
| CC1=NN(c2ccccc2)C(=O)/C1=C\C=C\c1ccccc1 | active: 8.91 µM |
| O=C(CCN1C(=O)COc2ccccc21)NCCCN1CCN(c2ccccc2F)CC1 | inconclusive: 10 µM [inhibitor, partial curve, poor fit] |
| O=C(CCSc1nc(-c2ccco2)cc(C(F)(F)F)n1)NCc1cccs1 | inconclusive: 5.01 µM [inhibitor, full curve, poor fit] |
| O=C(Nc1ncccc1O)c1ccc(Cl)c(S(=O)(=O)N2CCCCC2)c1 | inconclusive: 35.5 µM [inhibitor, single point] |
| CCOc1ccc(N2C(=O)/C(=C/c3ccco3)N(C)C2=S)cc1 | inactive |
| CCSc1ncc(Cl)c(C(=O)Nc2cccc(Cl)c2)n1 | inactive |
| CNC(=S)NCc1ccc(OC)cc1 | inactive |
| CCOc1ccc(NC(=O)CN(C)C(=O)c2c(C)noc2C)cc1OCC | inconclusive: 12.6 µM [inhibitor, single point] |
| Cc1ccc(S(=O)(=O)N(C)C)cc1NC(=O)CN1c2cccc3cccc(c23)S1(=O)=O | inconclusive: 6.31 µM [inhibitor, partial curve, poor fit] |
| COc1cccc(Cn2cc(C(=O)c3ccc(Cl)cc3)c(=O)c3ccccc32)c1 | inconclusive: 35.5 µM [inhibitor, single point] |
| CCn1ncc(/C=N\NC(=O)COc2ccccc2)c1C | inconclusive: 35.5 µM [inhibitor, single point] |
| Cc1ccc(C)c(S(=O)(=O)N2CCCC2CNC(=O)C(=O)NC2CCCC2)c1 (configuration not stated) | inactive |
| Cc1ccc(-c2csc3ncnc(N4CCN(c5ccccc5O)CC4)c23)cc1 | inactive |

| Structure (SMILES) | Potency |
| --- | --- |
| COc1ccc(-n2c(=O)c3c4c(sc3n(CC(N)=O)c2=O)CCCCC4)cc1 | inactive |
| COc1nc(-c2ccccc2)cc(-c2ccc(OC)c(OC)c2)n1 | inactive |
| COc1cccc(CC(=O)N2CCC(n3nccc3NC(=O)C3CCOC3)CC2)c1 (configuration not stated) | inactive |
| CCc1cc2c(cc3c(=O)n(CC(=O)NCCc4ccc(OC)cc4OC)nc(CC)n32)s1 | inconclusive: 0.112 µM [inhibitor, full curve, poor fit] |
| CC(=O)Nc1ccc(S(=O)(=O)N2c3ccc(F)cc3CCC2C)cc1 (configuration not stated) | inconclusive: 22.4 µM [inhibitor, single point] |
| CCCc1ccc2oc(C(=O)N(Cc3ccncc3)CC3CCCO3)c(C)c2c1 (configuration not stated) | inconclusive: 17.8 µM [inhibitor, single point] |
| Cc1cc2[nH]c(=O)c(=O)[nH]c2cc1S(=O)(=O)N1CCN(c2cccc(Cl)c2)CC1 | inconclusive: 15.8 µM [inhibitor, single point] |
| N#Cc1ccc(C(=O)N(Cc2ccco2)c2c(N)n(Cc3ccccc3)c(=O)[nH]c2=O)cc1 | inactive |
| CC(C)c1[nH]nc2c1C(C1C=CCCC1)C(C#N)=C(N)O2 (configuration not stated) | inconclusive: 7.94 µM [inhibitor, partial curve, poor fit] |
| COCCNC(=O)c1ccccc1NC(=O)c1nsc2ccccc12 | inconclusive: 20 µM [inhibitor, single point] |
| CC(NCc1cc(Br)ccc1OCC(=O)NCc1ccccc1)c1ccccc1 (configuration not stated) | active: 12.6 µM |
| CC1(C(=O)NS(=O)(=O)c2ccc(Cl)s2)CCN1C(=O)c1ccccc1CCc1ccccc1 (configuration not stated) | inactive |
| CCCOc1ccccc1-n1sc2c(c1=S)-c1cc(OC)cc3c1N(C(=O)C3=O)C2(C)C | inconclusive: 20 µM [inhibitor, partial curve, poor fit] |
| COc1cccc(CNS(=O)(=O)c2ccc3c(c2)CC(C)N3C(=O)C2CC2)c1 (configuration not stated) | inconclusive: 11.2 µM [inhibitor, single point] |
| O=C(NCCSc1c[nH]c2ccccc12)c1ccccc1Cl | inactive |
| Cc1cccn2c(=O)c3cc(C(=O)NCCc4ccccc4)c(=N)n(Cc4ccco4)c3nc12 | inconclusive: 3.55 µM [inhibitor, partial curve] |
| COC(=O)Cc1c(C)c2ccc3c(c2oc1=O)CN(Cc1ccccc1Cl)CO3 | inactive |
| CCc1c(C)sc2c1CCN(Cc1ccccc1F)C2c1ccccc1 (configuration not stated) | inconclusive: 35.5 µM [inhibitor, single point] |
| O=C1CCC[C@@H]2[C@@H](Cc3ccccc3)[C@H](N3CCN(c4ccccc4)CC3)C[C@@H]3CCN1[C@@H]32 | inconclusive: 14.1 µM [inhibitor, single point] |
| CC1(O)CC(c2ccc(Cl)cc2)=NN1C(=O)c1ccc([N+](=O)[O-])cc1 (configuration not stated) | inconclusive: 20 µM [inhibitor, single point] |
| CCN(CC)CCn1c2ccccc2c2cnc(N)c(C#N)c21 | inactive |
| O=C(CC1C(=O)NCCN1C(=O)Nc1ccc(Cl)cc1)Nc1ccc(F)cc1 (configuration not stated) | inconclusive: 10 µM [inhibitor, partial curve, poor fit] |
| Cn1ccc2c(N(Cc3ccccc3)Cc3ccccc3)cc3c(c21)C1CCC3C1 (configuration not stated) | inactive |

| Structure (SMILES) | Potency |
| --- | --- |
| CN(C(=O)c1ccc(NC(=O)Cc2ccc(NC(=O)C3CCCN(S(=O)(=O)c4cccc([N+](=O)[O-])c4)C3)cc2)cc1)C1CCCC1 (configuration not stated) | inconclusive: 2.51 µM [inhibitor, partial curve] |
| CSc1cccc(NC(=O)N2CCc3ccc(NC(=O)c4ccccn4)cc3C2)c1 | inconclusive: 35.5 µM [inhibitor, partial curve, poor fit] |
| CCOc1ccccc1NC(=O)CSc1nnc(CNC(=O)c2cccs2)o1 | inactive |
| CC(=O)c1c(Cl)nc2cccc3c2c1-c1ccccc1C3=O | inactive |
| CC(=O)c1cccc(NC(=O)c2ccc3nc(Cc4ccccc4)oc3c2)c1 | inconclusive: 35.5 µM [inhibitor, single point] |
| O=C(Nc1ccc(N2CCOCC2)cc1)c1ccc(Cl)c(S(=O)(=O)N2CCCCC2)c1 | inactive |
| CCn1c(=O)c2sccc2n2c(CCCC(=O)N3CCN(c4ccc(F)cc4)CC3)nnc12 | inconclusive: 12.6 µM [inhibitor, single point] |
| O=C(c1ccc(Cl)cc1)n1nc(-c2cccnc2)nc1NCc1ccc(F)cc1 | inconclusive: 35.5 µM [inhibitor, single point] |
| COc1ccc(C(=O)N/C(=C\c2cn(C)c3ccccc23)C(=O)OCCN(C)C)cc1 | inactive |
| CCOc1cccc2sc(N(CCCN(C)C)C(=O)c3ccc(S(=O)(=O)N(CC)Cc4ccccc4)cc3)nc12 | inconclusive: 35.5 µM [inhibitor, single point] |
| Cc1cccc(-c2ncc(CN3CCCC(CO)(Cc4ccccc4C)C3)cn2)c1 (configuration not stated) | inconclusive: 25.1 µM [inhibitor, single point] |
| Cc1cccc(C)c1NC(=O)c1cc(S(=O)(=O)N2CCc3ccccc3C2)ccc1F | inactive |
| Cc1ccc(S(C)(=O)=O)cc1C(=O)N1CC(C(N)=O)Oc2ccccc21 (configuration not stated) | inactive |
| CN(C)c1ccc(CN2CCC(C(=O)NC(c3ccc(F)cc3)c3ccc4ccccc4n3)CC2)cc1 (configuration not stated) | inconclusive: 35.5 µM [inhibitor, single point] |
| Clc1ccc(/C=C/c2ccnc3ccccc23)c(Cl)c1 | inconclusive: 20 µM [inhibitor, single point] |
| CCN(CC)c1ccc2cc(-c3nc4sc5c(c4c(=O)[nH]3)CCC(C(C)(C)C)C5)c(=O)oc2c1 (configuration not stated) | inactive |
| N#Cc1ccc(S(=O)(=O)N2CCCCC2c2cc(C(=O)Nc3cccc4c3CCCC4)no2)cc1 (configuration not stated) | inactive |
| CCN1CCN(Cc2c(O)ccc3oc(C)c(C(=O)Nc4cccc(C(F)(F)F)c4)c23)CC1 | inconclusive: 25.1 µM [inhibitor, single point] |
| Clc1ccc(Cn2cc(/C=N/n3cnnc3)c3ccccc32)c(Cl)c1 | inconclusive: 35.5 µM [inhibitor, single point] |
| CC(=NNC(=S)Nc1ccccc1Cl)c1ccccn1 | inconclusive: 0.251 µM [inhibitor, full curve, poor fit] |
| CC(C)(C)c1csc(NC(=O)c2ccccc2O)n1 | inconclusive: 31.6 µM [inhibitor, single point] |
